The text below walks through data of ChEMBL document CHEMBL4888484, “Replenishing the malaria drug discovery pipeline: Screening and hit evaluation of the MMV Hit Generation Library 1 (HGL1) against asexual blood stage Plasmodium falciparum ,using a nano luciferase reporter read-out” (2022).

As usually defined, the % Inhibition is the drop in the measured response relative to a control, in per cent.

Molecules are shown by their SMILES. The campaign covered roughly 150,000 compounds. About 540 (0.36%) showed an effect of 50% or more. This is one part of the list. Where a SMILES comes first, the peptide text is derived from it. The star is where a group is joined. Cbz = O=C(OCc1ccccc1)*

The subject of this experiment is Plasmodium falciparum. In words: Primary screen in NF54 nanoGlo assay, in single point, at 2uM, 72h; a lower Z score goes with more inhibition. To be noted: timepoint 72 hour. The experiment is classed as functional, Erythrocyte.
As for `Cc1n[nH]c(NS(=O)(=O)c2c(Br)cnn2C)c1C`, the “% Inhibition” value is on record as -34% and the Z score was determined as 3.99.
Taken in the same sequence, the figures for `O=C(NCc1nc(C2CCOCC2)no1)c1cc(-c2ccc3c(c2)OCO3)n[nH]1` were -21% and 2.66.
Turning to `Cc1cccc(CC2CN(C(=O)c3n[nH]c4c3CCC4)C2)c1`, the “% Inhibition” value is -5% and the Z score is recorded as 0.98.
For `O=C(Nc1nc2ccc(NC(=O)c3cccs3)cc2s1)c1ccccc1` the same measures were -4% and 0.36.
For `NC(=O)c1cncc(Oc2nc(C(F)(F)F)cs2)c1` the same measures were -2% and 0.22.
Taken in the same sequence, the figures for `C[C@H](NCC(=O)Nc1ccnn1C1CCCC1)c1ccc(F)c(F)c1` were 7% and -0.63.
Consider `CCCC[C@H](CC)C(=O)N(C)Cc1nnc2c(=O)n(C)ccn12`, for which the “% Inhibition” value is reported as -3% and the Z score is listed as 0.55.
For `CC[C@H](NC(C)=O)c1nc(-c2ccco2)nn1CC(C)(C)O` the same measures were -3% and 0.54.
For `COCCCN(CCOC)C(=O)c1ccc(C(C)=O)[nH]1` the same measures were 2% and -0.32.
For `CN(CCCc1cnn(C)c1)c1ccc2cc[nH]c2n1` the same measures were 3% and -0.59.
Consider `CC(C)CC(=O)NCCc1noc(C2CC2)n1`, for which the “% Inhibition” value was -9% and the Z score came to 1.2.
Taken in the same sequence, the figures for `CCCNC(=O)c1ccc(COc2ccc3c(c2)[C@H](c2cccc(F)c2)N(C(=O)C(C)(C)C)CC3)o1` were -12% and 1.46.
Regarding `Cc1ccc2oc(-c3cc(NC(=O)c4ccc(-c5cccc(Cl)c5)o4)ccc3O)nc2c1`, the “% Inhibition” value is -10% and the Z score was determined as 1.14.
For `COCCCC(=O)N1CCC[C@H]1Cn1ccnn1` the same measures were -8% and 1.05.
Taken in the same sequence, the figures for `Cn1nc(-c2nnc(-c3cccc(Cl)c3)o2)c2ccccc2c1=O` were -7% and 1.23.
For `Cc1[nH]ccc1C(=O)N1CCO[C@@H](CF)C1` the same measures were -14% and 1.75.
Turning to `O=C(Cn1ccc2ccccc21)N1CC(n2ccnn2)C1`, the “% Inhibition” value was -7% and the Z score is given as 0.84.
For `Cc1noc(Cn2cccc(C(F)(F)F)c2=O)n1` the same measures were -12% and 1.05.
As to `Cc1cc(C)cc(C2(CNC(=O)[C@@H]3NCCc4[nH]cnc43)CCCC2)c1`, the “% Inhibition” value was 10% and the Z score is given as -1.36.
Regarding `C[C@]1(O)CCN(C(=O)c2cccc3sc(C(F)(F)F)nc23)C1`, the “% Inhibition” value is on record as -1% and the Z score came to 0.1.
Taken in the same sequence, the figures for `CCCn1cc(C(=O)N2C[C@H](C(=O)O)[C@@H](c3ccccc3C)C2)c(C)n1` were -4% and 0.45.
For `CCN1CCC[C@@H]1CN(C)C(=O)c1nccc2c(S(N)(=O)=O)cccc12` the same measures were -6% and 1.16.
Turning to `c1ccc2c(c1)C[C@H](CNc1ncnc3ccsc13)O2`, the “% Inhibition” value is listed as -20% and the Z score is on record as 3.18.
`Cc1cccc(C(=O)Nc2cccc(C(=O)N3CCc4sccc4C3)c2C)n1`: the “% Inhibition” value is listed as -17% and the Z score is 2.34.
Taken in the same sequence, the figures for `C=CCN(CC=C)C(=O)CN1CCC[C@H]1c1nonc1C` were -12% and 1.11.
Take `COc1ccc(C2=C[C@@H](c3ccccc3Cl)n3ncc(C(=O)Nc4ccc(C)cc4)c3N2)cc1`: the “% Inhibition” value is listed as -3% and the Z score stood at 0.35.
Turning to `CC(NC(=O)C(C)c1ccc(Cl)s1)c1ncon1` (centres undefined), the “% Inhibition” value is -13% and the Z score stood at 1.14.
Taken in the same sequence, the figures for `O=C(Nc1nc(C(F)(F)F)cs1)N[C@H]1CC[C@@H](CO)C1` were -3% and 0.63.
Taken in the same sequence, the figures for `CCN1CCC(n2nccc2NCc2ccc(F)cc2)CC1` were 2% and -0.29.
Take `CCOC(=O)CN1CCCN(c2nc(OC)ncc2Cl)CC1`: the “% Inhibition” value is -4% and the Z score is reported as 0.44.
Taken in the same sequence, the figures for `CCN1CCC(N(C)C(=O)Nc2ccc(N3CCOCC3)cc2C)CC1C` (centres undefined) were -11% and 1.93.
Taken in the same sequence, the figures for `Cc1cc2nccc([C@H](C)Oc3ccc(-c4ccccc4)c(F)c3)n2n1` were 38% and -1.09.
Take `NC(=O)c1cn(C2CCN(C(=O)NCc3cccc4ccsc34)CC2)nn1`: the “% Inhibition” value came to 2% and the Z score is listed as -0.36.
Taken in the same sequence, the figures for `NC(=O)C1(CNC(=O)c2ccccc2OC[C@H]2CCCO2)CCCC1` were 0% and -0.03.
Taken in the same sequence, the figures for `Cc1nn(C)cc1CN1CCN(Cc2ccccc2)[C@H]2CS(=O)(=O)C[C@H]21` were -7% and 1.36.
Taken in the same sequence, the figures for `Cc1ccc(C(=O)NCc2nc3ccccc3[nH]2)c(=O)[nH]1` were -7% and 0.9.
For `NC(=O)c1cc2c(nc1N1CC[C@]3(CC(=O)NC3=O)C1)CCC2`, the “% Inhibition” value turned out to be 5% and the Z score was -0.89.
Taken in the same sequence, the figures for `COC[C@@H]1C[C@@H](O)CN1C(=O)CC1CC2CCC1C2` (some centres undefined) were -5% and 0.95.
With `O=C(CCN(C(=O)c1ccccc1F)C1CCCCC1)Nc1nnc(-c2cccc(Cl)c2)s1`, the “% Inhibition” value is listed as -16% and the Z score is listed as 2.31.
For `O=C(NCC1(Cc2ccccc2)CCC1)[C@@H]1CCCN1C(=O)c1ccccn1` the same measures were 0% and -0.07.
For `Cc1nc(-c2ccc(N3CCC[C@H]3C(=O)N(C)C)nc2)[nH]c(=O)c1C` the same measures were 16% and -1.9.
For `CCOCCCNC(=O)N1CCC2(CC1)C[C@@H](N(C1CC1)S(=O)(=O)CC)CCO2` the same measures were -7% and 1.15.
With `COC(=O)C1CCCN1C(=O)C1CCCN1C(=O)CNC(=O)OCc1ccccc1` (stereo not drawn) (Cbz-Gly-Pro-Pro-OMe; configuration not given here), the “% Inhibition” value is reported as -1% and the Z score was determined as 0.12.
Take `CCC1Oc2ccc(NC(=O)c3ccccc3)cc2CN(C2CCCc3ccccc32)C1=O` (centres undefined): the “% Inhibition” value is given as -10% and the Z score was found to be 1.25.
For `CC1CN(C(=O)C2CCN(C(=O)c3ccc(C(C)C)cc3O)CC2)CC(C)O1` (centres undefined) the same measures were -3% and 0.46.
Taken in the same sequence, the figures for `O=C(Cc1csc(-c2cccnc2)n1)NC[C@H]1CCCO1` were 6% and -0.77.
Taken in the same sequence, the figures for `CCCN(Cc1c(-c2ccccc2)noc1N(C)Cc1ccccc1)C[C@H](O)COC(C)C` were 3% and -0.41.
Regarding `COc1ccc(-c2nn3c(Nc4cccc(C)c4)cc(C)nc3c2C)cc1OC`, the “% Inhibition” value is -11% and the Z score came to 2.03.
For `C=CCN(CC(=O)N1CCN(c2ccc(-c3cccc(OC)c3)nn2)CC1)C(=O)c1cccc(OC)c1` the same measures were -7% and 1.05.
On to `O=S(=O)(Nc1nccc(C2CC2)n1)c1ccc2c(c1)CCCC2`, for which the “% Inhibition” value is -9% and the Z score is 1.22.
For `O=C(c1cnc(C2CC2)[nH]c1=O)N1CCC([C@@H](O)CCc2ccccc2)CC1` the same measures were -2% and 0.32.
Turning to `CCN1CCN(C(=O)c2csc(C)c2-c2ccc(C)cc2)CC1`, the “% Inhibition” value is -18% and the Z score is recorded as 1.62.
For `COc1ccccc1CCC(=O)N1CCCN(c2cc(-c3ccc(Cl)cc3)n[nH]2)CC1` the same measures were -21% and 2.13.
For `Nc1c(NC(=O)NCCc2ccccc2)c(-c2ccccc2)nn1-c1ccc(F)cc1` the same measures were -5% and 0.68.
Taken in the same sequence, the figures for `CC(C)(C(=O)N1CCCS(=O)(=O)CC1)C1CC1` were 29% and -3.27.
Consider `O=C(CC1CCCCC1)N1CCC2(CC1)Nc1ccc(Cl)cc1-n1cccc12`, for which the “% Inhibition” value is reported as -19% and the Z score came out at 2.51.
For `FCCn1ncnc1CN1CC[C@H](Cc2ccc(F)c(F)c2)C1` the same measures were -3% and 0.43.
Taken in the same sequence, the figures for `COc1cc(C(=O)N2C[C@H](NS(=O)(=O)N(C)C)[C@@H](C(C)C)C2)ccn1` were -17% and 2.25.
Taken in the same sequence, the figures for `CC1=CCN(C(=O)c2cccc(S(=O)(=O)NCc3cccnc3)c2)CC1` were -3% and 0.51.
Regarding `COc1ccc(C)cc1NC(=O)[C@@H]1CCCN1C(=O)c1cnnn1C`, the “% Inhibition” value is listed as -3% and the Z score was 0.41.
As to `O=c1cc2c(nn1Cc1ccccc1Cl)-c1ccccc1CC2`, the “% Inhibition” value was 34% and the Z score is on record as -4.43.
For the compound `O=C(Cc1cccc(F)c1F)N1C[C@@H]2CC[C@@H](C2)C1`, the “% Inhibition” value is reported as -7% and the Z score is 0.92.
Taken in the same sequence, the figures for `CCc1ccsc1C(=O)Nc1cnccc1O` were 8% and -1.51.
For `COCC1(CNc2cncc(C(=O)N(C)C)n2)CCC1`, the “% Inhibition” value is -10% and the Z score was 2.14.
For `O=C(CN1CCOC1=O)NCCN1Cc2cc(Cl)ccc2OCC1=O` the same measures were -13% and 2.14.
As to `C=CCN(Cc1ccc(C#N)cc1)[C@H]1CCN(CC(F)(F)F)C1=O`, the “% Inhibition” value is -8% and the Z score is on record as 1.
Regarding `Cc1nc(-c2ccc(Cl)c(S(=O)(=O)N3CCC(C(=O)Nc4ccccc4F)CC3)c2)no1`, the “% Inhibition” value was -5% and the Z score stood at 0.64.
For `O=C(CCc1cc2n(n1)CCCN(C[C@H]1CCCCO1)C2)NC1CC1` the same measures were -5% and 0.47.
For `C=CCn1c(=O)c2sc(N3CCCCC3)nc2n(CC(=O)NCc2ccccc2)c1=O` the same measures were -28% and 2.43.
Taken in the same sequence, the figures for `CCCCc1nnc(NCc2cccn2C)s1` were 13% and -1.26.
On to `CC(CO)(NC(=O)CC1CC2CCC1C2)c1ccc(O)cc1` (centres undefined), for which the “% Inhibition” value is -7% and the Z score is on record as 0.93.
Take `CCOC(=O)c1c(C)c(CCC(=O)N2CCN(c3ccccn3)CC2)n(C)c1C`: the “% Inhibition” value is -4% and the Z score was 0.78.
For `CCCN(C)S(=O)(=O)NCc1cccc(N)c1` the same measures were -3% and 0.52.
Taken in the same sequence, the figures for `CCNC(=O)c1cccnc1Oc1cccc(NS(=O)(=O)c2ccccc2)c1` were -8% and 1.16.
Taken in the same sequence, the figures for `CC(C)[C@H]1CCCN(C(=O)CCn2cccn2)CC1` were -15% and 1.9.
On to `C=CC[C@@H]1N(C(=O)CCN2CCN(CC)CC2)CCCC1(C)C`, for which the “% Inhibition” value turned out to be 1% and the Z score was -0.18.
For `C[C@H](NC(=O)Nc1ccc(C(C)(C)C#N)cc1)C(=O)N(C)C` the same measures were -5% and 0.73.
For `FC1(F)CCNC[C@@H]1COCc1ccccc1` the same measures were 7% and -1.25.
Taken in the same sequence, the figures for `COc1ccc(NC(=O)N2CC[S@+]([O-])C(C)(C)C2)c(Cl)c1` were -6% and 0.87.
As for `CN(C)S(=O)(=O)N1CCC[C@@]2(CCC(=O)N(Cc3ccccn3)C2)C1`, the “% Inhibition” value was -11% and the Z score came out at 2.16.
For `CS(=O)(=O)c1c(Cl)cccc1NC(=O)c1cnc([C@@H]2CCCO2)s1` the same measures were -11% and 1.58.
For the compound `N#Cc1cccc(CN2CC(n3cc(C(=O)NCC4CC4)nn3)C2)c1`, the “% Inhibition” value was -13% and the Z score is reported as 2.55.
